Data reported in article PMC12216098, “Structure of a transcribing Pol II-DSIF-SPT6-U1 snRNP complex” (Nature Communications, 2025).

Biological target: Human SPT6 NTD joined to the CTR by a 3x GSA linker, as used for ITC (human, lambda phosphatase-treated. Limits come from the primers: NTD ends LESSHLT, CTR starts PGITPS and ends at the C-terminus)
Assay: ITC; U1A in the syringe (150-550 μM), SPT6 construct in the cell (10-35 μM); 25 °C; SEC300 Buffer (20 mM HEPES-NaOH pH 7.5, 300 mM NaCl); one set of binding sites model
Conditions: both partners purified

Kd: 1340 nM
B1: Human U1A (natural protein)
chain: not shown
notes: human U1A, amplified from human cDNA with primers from the start codon (MAVPET) to the stop codon (ISFAKK); source: E. coli BL21 (DE3) RIL, purified (HisTrap, amylose, TEV, heparin, Superdex 75); not shown: His6, N-terminal, cleaved; MBP, N-terminal, cleaved
